Measured values taken from PubChem BioAssay AID686978 (National Center for Advancing Translational Sciences (NCATS), 2013).
Values joined by “and” are separate entries in the source; they are usually repeats but may differ in a detail not shown here. Identical values can stand only once. Among all 420,000 compounds or so, about 64,000 (15%) were called active. The shares of active, inactive and inconclusive entries below differ from those in the screen. Calls come from the whole dose curve; as a rule, active = well fitted inhibition curve with a large enough effect; inconclusive = small, poorly fitted or top-dose-only effect; inactive = flat fitted curve, though single readings scatter. Where the call is inconclusive, the potency comes from a doubtful curve fit.

Experiment: qHTS for Inhibitors of human tyrosyl-DNA phosphodiesterase 1 (TDP1): qHTS in cells in absence of CPT; note: nearly all actives have a fitted effect of over 55% in size
Details: DT40 Tdp1-/- hTDP1 cells, no CPT, ATP luminescence, 48 h; activity change, negative = growth inhibition: at 46.2 µM (top of the series) unless noted
Outline: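 No-CPT arm: Tdp1-/-;hTDP1 DT40 cells (400/well) plus compounds, incubated ≥48 hr at 37 °C. Readout CellTiter-Glo luminescence.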
% is set by controls: 0 for no effect and ±100 for the full control effect; potency is the fitted concentration of half-maximal effect; tags give direction and shape of the fitted curve.

Structure (SMILES)	Potency	activity change, negative = growth inhibition
CCN(CC1COc2ccccc2O1)C(=O)c1ccc(Cl)c(S(=O)(=O)N2CC(C)OC(C)C2)c1 (configuration not stated)	active: 4.61 µM	–
Cc1ccc(S(=O)(=O)c2cnc(SCC(=O)Nc3cccc(Cl)c3)nc2N)cc1C	active: 23.1 µM	–
CCOc1ccc(CC(=O)Nc2c(C(=O)Nc3ccccc3)oc3ccccc23)cc1OCC	–	inconclusive: -30.9% [inhibitor]
Cc1ccc(NNC(=O)c2cccs2)cc1Cl	inconclusive: 23.1 µM [inhibitor, single point]	–
Cc1cc(C=O)cc(C)c1[N+](=O)[O-]	inconclusive: 20 µM [inhibitor, single point]	–
Cc1ccc(C2=NN(C(=O)CNCCO)C(c3cccs3)C2)cc1 (configuration not stated)	inconclusive: 20.6 µM [inhibitor, single point]	–
O=C(NCCCn1ccnc1)c1ccc(N2CCCCCC2)c([N+](=O)[O-])c1	inconclusive: 25.9 µM [inhibitor, single point]	–
Cc1noc(C)c1C(=O)N1CCC2(CCN(Cc3ccc(C#N)cc3)CC2)CC1	inconclusive: 20.6 µM [inhibitor, partial curve]	–
O=C(NCCCN1CCOCC1)c1ccc2c(c1)N(Cc1ccc(Cl)cc1)C(=O)c1ccccc1S2=O (configuration not stated)	inconclusive: 6.51 µM [inhibitor, single point]	–
Cc1occc1C(=O)N1CCN(C(c2ccccc2)c2ccccc2)CC1	inconclusive: 23.1 µM [inhibitor, single point]	–
N#CCCn1cc(C=C(C#N)C#N)c(-c2ccc(Cl)cc2)n1	inconclusive: 20.6 µM [inhibitor, single point]	–
CC(C)c1c(O)ccc2c1CCC1[C@@](C)(CO)CCC[C@@]21C (some centres not stated)	inconclusive: 23.1 µM [inhibitor, single point]	–
Cn1c(=O)c(-c2cccc(C#N)c2)nc2cnc(Oc3ccccc3)nc21	inactive	–
Clc1ccc(-c2nnc(CNC3CC3)o2)cc1	inconclusive: 23.1 µM [inhibitor, single point]	–
O=C(Nc1ccccc1)C1=C[C@H](c2ccccc2)C[C@H](OCc2ccc(CO)cc2)O1	inconclusive: 16.4 µM [inhibitor, single point]	–
CCOC(=O)CNC(=O)CSc1nnc(Cn2c(=O)sc3ccccc32)n1-c1ccccc1C	–	inconclusive: -32.5% [inhibitor]
O=C(CNC(=O)c1sc2ccccc2c1Cl)NCc1ccccc1	inconclusive: 16.4 µM [inhibitor, single point]	–
COc1cc(C(=O)Nc2nc(C)cc(C)n2)cc(OC)c1OC	inactive	–
CC(C)CN1CCC(=O)N(CCSc2ccc(Br)cc2)CC1	inconclusive: 23.1 µM [inhibitor, single point]	–
CC(C)/C=C/C(=O)N1CCCC(N2CCN(c3ccccc3F)CC2)C1 (configuration not stated)	inactive	–
Oc1ccc(Nc2nc3ccccc3n3cnnc23)cc1	inconclusive: 7.31 µM [inhibitor, partial curve]	–
Cc1ccc(/C=N/NC(=O)NC23CC4CC(CC(C4)C2)C3)o1	inactive	–
COc1ccc(NC(=O)c2nc[nH]c2C(=O)N[C@@H](CC(C)C)C(=O)OC(C)(C)C)cc1	inconclusive: 29.1 µM [inhibitor, single point]	–

Structure (SMILES)	Potency	activity change, negative = growth inhibition
OC(c1ccccc1)(c1nc(-c2cc(F)cc(F)c2)cs1)C(F)(F)F (configuration not stated)	inconclusive: 29.1 µM [inhibitor, single point]	–
COC(=O)C(C)Sc1nc2c(c(=O)n(C)c(=O)n2C)n1CCC(C)C (configuration not stated)	inconclusive: 29.1 µM [inhibitor, single point]	–
CCCC(C)NCC(=O)Nc1ccccc1-c1ccccc1 (configuration not stated)	inactive	–
C=CCSc1nccc(=O)[nH]1	inconclusive: 25.9 µM [inhibitor, single point]	–
Cc1oc2cc3c(C(=O)N4CCCCC4)c(C)oc3cc2c1C(=O)N1CCCCC1	active: 18.4 µM	–
Cc1ccc(-n2c(C)cc(C(=O)COc3c(CO)cc(F)cc3CO)c2C)cc1C	active: 3.66 µM	–
C#Cc1cccc(C(=O)NCc2nc(-c3ccccc3NC(=O)C3CCCO3)oc2C)c1 (configuration not stated)	inactive	–
CC1(CO)COC(c2ccccc2)=N1 (configuration not stated)	inactive	–
Cc1ccc(C2c3c(-c4cc(C)ccc4O)n[nH]c3C(=O)N2Cc2ccco2)cc1 (configuration not stated)	inconclusive: 25.9 µM [inhibitor, single point]	–
COC(=O)[C@@]1(Cc2ccc(OC)cc2)[C@@H]2[C@@H](CC(=O)[C@H]2CC(=O)C(=O)N(C)C)CN1C(=O)c1ccccc1	inconclusive: 18.4 µM [inhibitor, single point]	–
COCCN=C1NN=C(c2cc(C)n(CC3CCCO3)c2C)CS1 (configuration not stated)	inconclusive: 20.6 µM [inhibitor, single point]	–
Cc1ccc2c(c1)C(=O)C(=O)N2Cc1ccc(F)cc1	active: 0.92 µM	–
CN(CCn1ccnc1)Cc1cn(Cc2ccccc2)nc1-c1ccc2c(c1)OCO2	inactive	–
Cc1ccc(-n2ncc(C(=O)NCCCN3CCCCC3)c2C2CCN(C(=O)OC(C)(C)C)CC2)c(C)c1	inconclusive: 20.6 µM [inhibitor, single point]	–
Cc1csc(SCC(=O)Nc2sc3c(c2C#N)CCC3)n1	inconclusive: 29.1 µM [inhibitor, single point]	–
COCCNC(=O)C1(C)CCCN(C(=O)Cc2ccc3ccccc3c2)C1 (configuration not stated)	inconclusive: 16.4 µM [inhibitor, partial curve]	–
O=C(CN1CCN(CC(=O)Nc2ccc(OCc3ccccc3)cc2)CC1)Nc1ccc(F)cc1	inconclusive: 23.1 µM [inhibitor, single point]	–
O=C(NC(=S)N1CCN(C(c2ccccc2)c2ccccc2)CC1)c1ccc(S(=O)(=O)N2CCOCC2)cc1	inconclusive: 32.6 µM [inhibitor, single point]	–
NC(=O)C1CCN(c2ccc3c(c2)S(=O)(=O)c2ccccc2C3=O)CC1	inactive	–
CC1(C)NC(=O)N(CCCCOc2cccc(C(F)(F)F)c2)C1=O	inconclusive: 29.1 µM [inhibitor, single point]	–
CCNC(=S)N1CCN(S(=O)(=O)c2ccc(Cl)s2)CC1	inconclusive: 25.9 µM [inhibitor, single point]	–
CC(C)C[C@H](NC(=O)c1nc[nH]c1C(=O)NCc1ccc(CNC(=O)OC(C)(C)C)cc1)C(=O)OC(C)(C)C	active: 16.4 µM	–
COc1cccc(CNC(=O)[C@@H]2CCCN2C(=O)[C@H]2CCCCN2C(=O)c2c(F)cccc2F)c1	inconclusive: 29.1 µM [inhibitor, single point]	–

Structure (SMILES)	Potency	activity change, negative = growth inhibition
CC(=O)c1c(C)[nH]c(C(=O)Nc2cccc(C)n2)c1C	inactive	–
Cc1ccccc1-n1nnnc1SCc1ncc(-c2ccccc2)o1	inconclusive: 13 µM [inhibitor, partial curve, poor fit]	–
Cc1cc2c3nonc3ccc2n1-c1ccccc1	–	inconclusive: -7.7% [inhibitor]
COc1cc(OC)cc(-c2cc3ccc(F)cc3cn2)c1	inconclusive: 29.1 µM [inhibitor, single point]	–
Cc1cc(Cl)ccc1OCC(=O)NNC(=O)c1cccnc1	inactive	–
O=C(Oc1ccc(Cl)c2cccnc12)N1CCOCC1	inactive	–
c1nc(N2CCC3(CC2)OCCO3)c2c3c(sc2n1)CCCC3	inconclusive: 16.4 µM [inhibitor, partial curve, poor fit]	–
CCCn1c(N)c(C(=O)CSc2nnc(Cc3cccs3)n2C2CC2)c(=O)n(C)c1=O	inconclusive: 18.4 µM [inhibitor, partial curve]	–
CCN1C(=O)[C@H]2[C@@H](c3ccc(C)cc3)N3C(=O)N(c4ccc(C)cc4)C(=O)[C@@]3(Cc3ccccc3)[C@H]2C1=O	inconclusive: 20.6 µM [inhibitor, single point]	–
Cc1ccc(C(=O)CN(C(=O)c2ccc(Cl)c(Cl)c2)N2C(=O)C3C4C=CC(C4)C3C2=O)cc1 (configuration not stated)	inconclusive: 18.4 µM [inhibitor, single point]	–
CCc1cccc(C)c1NC(=O)CCCn1c(=O)c2cccn2c2cccnc21	inactive and inconclusive: 23.1 µM [inhibitor, single point]	–
Cc1[nH]nc2ncc(C(=O)c3ccccc3O)cc12	inconclusive: 7.31 µM [inhibitor, partial curve, poor fit]	–
Brc1ccc2[nH]c3nc(SCCN4CCOCC4)nnc3c2c1	inconclusive: 8.2 µM [inhibitor, partial curve]	–
CCC1CCCCN1C(=O)COC(=O)c1cc2ccccc2cc1O (configuration not stated)	inconclusive: 0.651 µM [inhibitor, partial curve, poor fit]	–
CCCCCCCNC1=CC(=O)CC(c2ccccc2)C1 (configuration not stated)	active: 5.8 µM	–
Cc1ccccc1-c1noc(C23CC4CC(CC(C4)C2)C3)n1	inconclusive: 29.1 µM [inhibitor, single point]	–
O=C(Nc1ccc(Cl)c(Cl)c1)C1C2C=CC3(O2)C1C(=O)N(CCN1CCCCC1)C3C(=O)NC1CCCCC1 (configuration not stated)	inconclusive: 29.1 µM [inhibitor, single point]	–
CCOc1ccc(NC(=O)CN2CCN(S(=O)(=O)c3ccc(Cl)cc3)CC2)cc1	inconclusive: 29.1 µM [inhibitor, single point]	–
O=C(Nc1ccncc1)c1cc(S(=O)(=O)N2CCN(c3ccccc3)CC2)ccc1Cl	inconclusive: 29.1 µM [inhibitor, single point]	–
O=C(NCC1CCCO1)c1cc(-c2ccccc2F)no1 (configuration not stated)	inconclusive: 25.9 µM [inhibitor, single point]	–
COC1=CC(=O)OC(c2cccc(Cl)c2)C1 (configuration not stated)	inactive	–
